Data on 86 sequences can be found in the supplement of paper PMC4166925.

± gives the standard deviation of the averaged measurements. Whole data set: some 33,000 sequences, median “E-score (dimensionless, -0.5 to 0.5)” near -0.046, cut for the highest 2% near 0.36. The list shows a part of the results.

In the assay the test system is T1, SpTbr T-box DNA-binding domain (GST fusion).
T1 sequence: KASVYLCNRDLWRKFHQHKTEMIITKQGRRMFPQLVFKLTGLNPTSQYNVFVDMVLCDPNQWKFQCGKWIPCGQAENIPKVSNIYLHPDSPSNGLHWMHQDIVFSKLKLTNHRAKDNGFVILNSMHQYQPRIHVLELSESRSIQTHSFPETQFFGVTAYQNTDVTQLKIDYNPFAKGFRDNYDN
Briefly: PBM E-score of 8-mer (E-score (dimensionless, -0.5 to 0.5)); Tbr is Tbrain of the sea star Patiria miniata (Pm) or the sea urchin Strongylocentrotus purpuratus (Sp); higher = stronger binding preference; most listed sequences are background and not binding sites. Conditions: the construct has about 5 more residues each side. The procedure, abridged: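 Using the Universal PBM Analysis Suite, every ungapped 8-mer received an enrichment E-score averaged over duplicate arrays. Probe intensities came from double-stranded Universal Agilent oligonucleotide arrays incubated with 200 nM GST-fused Tbr T-box DNA-binding domain in PBS (pH 7.5). That protein was expressed in BL21 E. coli at 20 °C and purified by glutathione affinity chromatography.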
Turning to AGCACATA, the “PBM E-score of 8-mer” value came to 0.194 ± 0.013.
For ATGCTTTC, the “PBM E-score of 8-mer” value amounted to 0.064 ± 0.026.
Consider GGTATTTA, for which the “PBM E-score of 8-mer” value was -0.262 ± 0.0094.
For AAAAGAAG, the “PBM E-score of 8-mer” value was -0.153 ± 0.061.
ACGGACCG: the “PBM E-score of 8-mer” value is -0.0131 ± 0.013.
On to GAACTTGA, for which the “PBM E-score of 8-mer” value was -0.0691 ± 0.0032.
Then AGGTGGTG, with 0.34049 ± 0.00016; and CTATAGAA, with -0.173 ± 0.0088; and GATGATCC, with -0.0774 ± 0.0012.
As for CTAACCGC, the “PBM E-score of 8-mer” value was found to be 0.0415 ± 0.056.
Consider CCGGAGAG, for which the “PBM E-score of 8-mer” value is -0.14 ± 0.037.
For the sequence CTAACTCC, the “PBM E-score of 8-mer” value was -0.0932 ± 0.053.
With TTATCGAA, the “PBM E-score of 8-mer” value was -0.0377 ± 0.05.
For ATCGTAGA, the “PBM E-score of 8-mer” value was -0.22 ± 0.058.
AACGAAAA: the “PBM E-score of 8-mer” value was -0.157 ± 0.015.
The value for AACGAGAA was -0.0184 ± 0.012; that for CTTACGTA was -0.191 ± 0.034.
TAGTCGGA: the “PBM E-score of 8-mer” value was -0.226 ± 0.059.
As to ATAAGAAA, the “PBM E-score of 8-mer” value is -0.0877 ± 0.046.
Regarding ACTAACCG, the “PBM E-score of 8-mer” value is -0.11 ± 0.0066.
The value for ACCCGAGT was -0.0592 ± 0.085; that for AACTTTCC was -0.00387 ± 0.014.
TACCTACA: the “PBM E-score of 8-mer” value was -0.24 ± 0.016.
As for AAGTGAAG, the “PBM E-score of 8-mer” value was determined as 0.13 ± 0.049.
AAACGGCT: the “PBM E-score of 8-mer” value is -0.0874 ± 0.046.
With ATGGAGTG, the “PBM E-score of 8-mer” value amounted to 0.0521 ± 0.0097.
Turning to ACTATCAT, the “PBM E-score of 8-mer” value was -0.0341 ± 0.069.
For the sequence AGGTTAGA, the “PBM E-score of 8-mer” value is -0.209 ± 0.025.
The value for AGTTCACA was 0.442 ± 0.013.
Then TCAATCAA, with -0.134 ± 0.005.
CGTGCCTA: the “PBM E-score of 8-mer” value was -0.0792 ± 0.002.
The value for CTCAGGCC was -0.273 ± 0.0029.
On to ATCCCCCC, for which the “PBM E-score of 8-mer” value was -0.114 ± 0.019.
Regarding ACCGCAAC, the “PBM E-score of 8-mer” value was 0.0768 ± 0.011.
In the case of CGTATATC, the “PBM E-score of 8-mer” value was -0.204 ± 0.038.
Turning to CGCCAGGC, the “PBM E-score of 8-mer” value came out at 0.0802 ± 0.039.
For CTTTTCCA, the “PBM E-score of 8-mer” value was -0.00443 ± 0.094.
In the case of AGTACTCG, the “PBM E-score of 8-mer” value was -0.0747 ± 0.055.
On to ACTCCGCT, for which the “PBM E-score of 8-mer” value is -0.0708 ± 0.048.
Regarding GCGTTATA, the “PBM E-score of 8-mer” value was found to be 0.116 ± 0.04.
Then GACTCCCA, with 0.0282 ± 0.02; and TACGTGCA, with -0.0274 ± 0.019; and CACATCAA, with 0.113 ± 0.0036.
For the sequence GGGTCGTA, the “PBM E-score of 8-mer” value was -0.0786 ± 0.067.
For the sequence GACACGAA, the “PBM E-score of 8-mer” value was -0.00283 ± 0.0034.
As to AGCTCTAG, the “PBM E-score of 8-mer” value was -0.216 ± 0.036.
Consider GAATCAAC, for which the “PBM E-score of 8-mer” value is -0.0673 ± 0.072.
With CATGGGTC, the “PBM E-score of 8-mer” value was -0.0751 ± 0.043.
As to CCTTGAAG, the “PBM E-score of 8-mer” value is -0.174 ± 0.028.
As for ACCCCATA, the “PBM E-score of 8-mer” value was -0.0252 ± 0.048.
Then AGAAGGAT, with -0.0265 ± 0.033; and ACAGTCCC, with 0.0329 ± 0.055; and TAGGGGAA, with -0.114 ± 0.035.
Regarding GCATGCAC, the “PBM E-score of 8-mer” value is -0.121 ± 0.0081.
Turning to CCGAATCA, the “PBM E-score of 8-mer” value was -0.0287 ± 0.0021.
In the case of GCCATTAA, the “PBM E-score of 8-mer” value was -0.0677 ± 0.022.
In the case of TAGCCTCA, the “PBM E-score of 8-mer” value is -0.188 ± 0.019.
With CTCAATCC, the “PBM E-score of 8-mer” value is -0.143 ± 0.0076.
Turning to GGCGACTA, the “PBM E-score of 8-mer” value was 0.0382 ± 0.012.
With ACGCCAGC, the “PBM E-score of 8-mer” value was determined as 0.225 ± 0.0086.
Then ATTTTACA, with 0.0366 ± 0.039.
As for CTCCCCTA, the “PBM E-score of 8-mer” value was -0.263 ± 0.0042.
Consider CGCTTGCA, for which the “PBM E-score of 8-mer” value was determined as 0.135 ± 0.0068.
As to CGCCGCAG, the “PBM E-score of 8-mer” value is -0.133 ± 0.041.
ATGGGCCC: the “PBM E-score of 8-mer” value was -0.202 ± 0.014.
Turning to CAACGGAC, the “PBM E-score of 8-mer” value was -0.00834 ± 0.036.
In the case of CTTCGTGC, the “PBM E-score of 8-mer” value was -0.0237 ± 0.045.
For the sequence AGGGCGTC, the “PBM E-score of 8-mer” value was found to be 0.0922 ± 0.035.
TCCCGACA: the “PBM E-score of 8-mer” value was found to be 0.0227 ± 0.032.
As to AGACTTCA, the “PBM E-score of 8-mer” value is -0.0237 ± 0.0098.
In the case of AATAAGAA, the “PBM E-score of 8-mer” value is -0.182 ± 0.017.
Then AAAGAATA, with -0.0591 ± 0.034; and GTCCTCTA, with -0.287 ± 0.0061; and AATTGGTA, with -0.188 ± 0.025.
For CCATTAGC, the “PBM E-score of 8-mer” value was 0.0519 ± 0.085.
As to CGATTCAG, the “PBM E-score of 8-mer” value was -0.0197 ± 0.012.
For the sequence GCTGTCTA, the “PBM E-score of 8-mer” value amounted to 0.0128 ± 0.0077.
Turning to AAGAGTCT, the “PBM E-score of 8-mer” value is -0.231 ± 0.075.
For the sequence CAAGGTCG, the “PBM E-score of 8-mer” value is -0.015 ± 0.0036.
For CGAGTTAA, the “PBM E-score of 8-mer” value was 0.193 ± 0.008.
As for CACTGAAG, the “PBM E-score of 8-mer” value is -0.105 ± 0.019.
Then CGGGCCTC, with -0.179 ± 0.013; and AAAACACC, with 0.298 ± 0.018.
Take ACGACAAA: the “PBM E-score of 8-mer” value came to 0.0001 ± 0.045.
Take CTTCAGCC: the “PBM E-score of 8-mer” value is -0.0849 ± 0.077.
As for ACGTAGCG, the “PBM E-score of 8-mer” value was -0.0113 ± 0.029.
